# Laboratory results taken from PMC6423038, “Deferiprone: Pan-selective Histone Lysine Demethylase Inhibition Activity and Structure Activity Relationship Study” (Scientific Reports, 2019).
# Test system: H3K4me3 and H3K27me3 levels in MDA-MB-231 cells
# Assay type: cell-based, human
# Conditions: Western blot
row,Structure (SMILES),H3K4me3 and H3K27me3 levels
1,Cc1c(O)c(=O)ccn1CCCCCCn1cc(-c2ccc(-c3ccncc3)cc2)nn1 [2u],dose-dependent increase
2,"Cc1c(O)c(=O)ccn1C [DFP, Deferiprone]",dose-dependent upregulation
3,Cc1c(O)c(=O)ccn1CCCCCn1cc(-c2ccccc2)nn1 [1d],dose-dependent increase
